Among all 7,900 compounds or so, about 400 (5.1%) showed an effect of 50% or more. This is one part of the list.

Sequence of Parkinson's disease protein 7 (PARK7/DJ1) (Q99497 whole entry, looked up, the tested form may be a part): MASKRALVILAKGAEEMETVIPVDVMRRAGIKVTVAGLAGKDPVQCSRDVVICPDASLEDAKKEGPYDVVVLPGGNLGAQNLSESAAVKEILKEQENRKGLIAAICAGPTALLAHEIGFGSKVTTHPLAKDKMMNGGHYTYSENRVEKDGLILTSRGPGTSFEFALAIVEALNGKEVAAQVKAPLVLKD

This assay deals with Parkinson's disease protein 7 (PARK7/DJ1) (human, UniProt Q99497). Nature of the assay: primary screen, percent inhibition; read as competition with a fluorescent probe by fluorescence polarization; higher = more effect of the substance. The note with it: 100 µM. In a few lines:
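Covalent fragments at 100 μM final were incubated 2 h with 0.2 μM PARK7, then 20 nM probe JYQ-107 added for a further 2 h. Fluorescence polarization read at 480/520 nm; relative FP loss versus reference controls gave remaining enzyme activity.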
With `O=C(Nc1ccc2c(c1)COC2)c1cccnc1S`, the Inhibition % was found to be 2.52%.

In the case of `O=c1c2ccccc2nc(S)n1C1CC1`, the Inhibition % amounted to 4.16%. For `C=CC(=O)N1CCN(C(=O)COC)CC1`, the Inhibition % was -2.75%.

`C=CC(=O)NC1CCOC(C(C)(C)C)C1` (centres unmarked): the Inhibition % is -3.67%. In the case of `O=C(CC1OCCCO1)N1CCCN(C2CCCC2)CC1`, the Inhibition % was 15%.

`C=CC(=O)N1CCOc2ncccc2C1`: the Inhibition % was 9.48%.

In the case of `C=CC(=O)N1CC(C)(CC(F)(F)F)C1`, the Inhibition % is given as 7.14%. The same measure for `C=CC(=O)N1CCN(S(=O)(=O)CC)CC1`: 11.7%.

For `CC1(C)CCC(OS(C)(=O)=O)CC1`, the Inhibition % was determined as 16.9%.

For the compound `CCCc1nc(C#N)co1`, the Inhibition % is given as 4.99%. As to `N#Cc1cnc2ccccn12`, the Inhibition % is 21.5%. The result for `O=C(Cn1c(-c2ccccn2)noc1=O)N1CCCCC1` reads 8.8%; that for `CC1CN(C(=O)CN2CCSC2=O)C(C)CO1` (centres unmarked), 4.59%; that for `CC(C)C(NS(=O)(=O)C=Cc1ccccc1)C(=O)O` (centres unmarked), 2.61%. The result for `Cn1cccc1C(=O)NS(=O)(=O)C=Cc1ccc(F)cc1` reads 8.72%.

Take `O=C(c1cc(Cl)ccc1O)N1CCCC(C2OCCO2)C1` (centres unmarked): the Inhibition % turned out to be 8.28%. The result for `CN(CCc1nccs1)C(=O)c1cccnc1S` reads 5.89%. Take `CCN(C(=O)c1ccc(B(O)O)cc1)C1CCOC(C)(C)C1` (centres unmarked): the Inhibition % came out at 8.49%. In the case of `N#Cc1nccnc1N`, the Inhibition % is recorded as 4.54%. For `N#CC(=Cc1ccncc1)C(=O)Nc1cccc(Cl)c1`, the Inhibition % was 10.5%. For the compound `C=CC(=O)NC1C2C3CC4C5CC(C42)C1C53` (centres unmarked), the Inhibition % was determined as 11%. Regarding `C=CC(=O)NCc1ccc2c(c1)OCO2`, the Inhibition % stood at 11.2%. The same measure for `C=CC(=O)NCc1csc2ccccc12`: 7.7%; for `CC1(CO)CCCC1Nc1ccc(C#N)nc1` (centres unmarked): 6.61%. The result for `CC1CC(N(C)CC2CCCCC2)C(=O)O1` (centres unmarked) reads 4.89%; that for `O=C(CCl)Nc1ccc([N+](=O)[O-])cc1C(F)(F)F`, 12.1%. As to `C=CC(=O)N1CCc2cccc(OC)c2CC1`, the Inhibition % was found to be 7.14%.

Turning to `COc1ccccc1CN(C)C(=O)CCl`, the Inhibition % worked out at 98.6%. The same measure for `N#Cc1cc(N2C[C@@H](F)C[C@H]2CO)ccn1`: 37.7%; for `N#Cc1nccnc1N1CCC(Cc2ccccc2)C1` (centres unmarked): 5.93%; for `Cn1cc(C=C2N=C(c3ccccc3F)OC2=O)cn1`: -1.81%.

For `OB(O)c1ccc(OCC2CC2)cc1`, the Inhibition % is on record as 0.734%. The result for `O=C(CN1CCSC1=O)Nc1cnccc1O` reads 0.99%; that for `N#Cc1cc(CO)ccn1`, 8.51%; that for `COC(C)(C)CNC(=O)c1cccnc1S`, 20.8%.
